Laboratory results taken from PubChem BioAssay AID504333 (National Center for Advancing Translational Sciences (NCATS), 2011).
Out of some 360,000 compounds screened, about 16,000 (4.4%) were called active. The shares of active, inactive and inconclusive entries below differ from those in the screen. Calls follow the shape of the dose curve; as a rule, active = well fitted inhibition curve with a large enough effect; inconclusive = small, poorly fitted or top-dose-only effect; inactive = no such curve, though single readings can be large or run the other way. A potency beside an inconclusive call is a rough fit, not a confirmed value.

molecular target: Bromodomain adjacent to zinc finger domain protein 2B (Homo sapiens) (UniProt Q9UIF8); assay: qHTS Assay for Inhibitors of BAZ2B; conditions: AlphaScreen BAZ2B-H3K14Ac peptide displacement; series mostly up to 114 µM; also: nearly all actives have a fitted effect of over 60% in size
Outline: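 Protein-peptide AlphaScreen: BAZ2B 50 nM, b-H3K14Ac 50 nM, 1x PBS pH 7.4 + 0.01% Tween-20. Preincubation 30 min RT; cpd 30 min RT (top 110 uM); beads 20 min RT, light-protected.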
Potency is read from the fitted curve at half-maximal effect; tags tell the direction and shape of the fitted curve.

Sequence of UniProt Q9UIF8 (Q9UIF8 whole entry, looked up, the tested form may be a part): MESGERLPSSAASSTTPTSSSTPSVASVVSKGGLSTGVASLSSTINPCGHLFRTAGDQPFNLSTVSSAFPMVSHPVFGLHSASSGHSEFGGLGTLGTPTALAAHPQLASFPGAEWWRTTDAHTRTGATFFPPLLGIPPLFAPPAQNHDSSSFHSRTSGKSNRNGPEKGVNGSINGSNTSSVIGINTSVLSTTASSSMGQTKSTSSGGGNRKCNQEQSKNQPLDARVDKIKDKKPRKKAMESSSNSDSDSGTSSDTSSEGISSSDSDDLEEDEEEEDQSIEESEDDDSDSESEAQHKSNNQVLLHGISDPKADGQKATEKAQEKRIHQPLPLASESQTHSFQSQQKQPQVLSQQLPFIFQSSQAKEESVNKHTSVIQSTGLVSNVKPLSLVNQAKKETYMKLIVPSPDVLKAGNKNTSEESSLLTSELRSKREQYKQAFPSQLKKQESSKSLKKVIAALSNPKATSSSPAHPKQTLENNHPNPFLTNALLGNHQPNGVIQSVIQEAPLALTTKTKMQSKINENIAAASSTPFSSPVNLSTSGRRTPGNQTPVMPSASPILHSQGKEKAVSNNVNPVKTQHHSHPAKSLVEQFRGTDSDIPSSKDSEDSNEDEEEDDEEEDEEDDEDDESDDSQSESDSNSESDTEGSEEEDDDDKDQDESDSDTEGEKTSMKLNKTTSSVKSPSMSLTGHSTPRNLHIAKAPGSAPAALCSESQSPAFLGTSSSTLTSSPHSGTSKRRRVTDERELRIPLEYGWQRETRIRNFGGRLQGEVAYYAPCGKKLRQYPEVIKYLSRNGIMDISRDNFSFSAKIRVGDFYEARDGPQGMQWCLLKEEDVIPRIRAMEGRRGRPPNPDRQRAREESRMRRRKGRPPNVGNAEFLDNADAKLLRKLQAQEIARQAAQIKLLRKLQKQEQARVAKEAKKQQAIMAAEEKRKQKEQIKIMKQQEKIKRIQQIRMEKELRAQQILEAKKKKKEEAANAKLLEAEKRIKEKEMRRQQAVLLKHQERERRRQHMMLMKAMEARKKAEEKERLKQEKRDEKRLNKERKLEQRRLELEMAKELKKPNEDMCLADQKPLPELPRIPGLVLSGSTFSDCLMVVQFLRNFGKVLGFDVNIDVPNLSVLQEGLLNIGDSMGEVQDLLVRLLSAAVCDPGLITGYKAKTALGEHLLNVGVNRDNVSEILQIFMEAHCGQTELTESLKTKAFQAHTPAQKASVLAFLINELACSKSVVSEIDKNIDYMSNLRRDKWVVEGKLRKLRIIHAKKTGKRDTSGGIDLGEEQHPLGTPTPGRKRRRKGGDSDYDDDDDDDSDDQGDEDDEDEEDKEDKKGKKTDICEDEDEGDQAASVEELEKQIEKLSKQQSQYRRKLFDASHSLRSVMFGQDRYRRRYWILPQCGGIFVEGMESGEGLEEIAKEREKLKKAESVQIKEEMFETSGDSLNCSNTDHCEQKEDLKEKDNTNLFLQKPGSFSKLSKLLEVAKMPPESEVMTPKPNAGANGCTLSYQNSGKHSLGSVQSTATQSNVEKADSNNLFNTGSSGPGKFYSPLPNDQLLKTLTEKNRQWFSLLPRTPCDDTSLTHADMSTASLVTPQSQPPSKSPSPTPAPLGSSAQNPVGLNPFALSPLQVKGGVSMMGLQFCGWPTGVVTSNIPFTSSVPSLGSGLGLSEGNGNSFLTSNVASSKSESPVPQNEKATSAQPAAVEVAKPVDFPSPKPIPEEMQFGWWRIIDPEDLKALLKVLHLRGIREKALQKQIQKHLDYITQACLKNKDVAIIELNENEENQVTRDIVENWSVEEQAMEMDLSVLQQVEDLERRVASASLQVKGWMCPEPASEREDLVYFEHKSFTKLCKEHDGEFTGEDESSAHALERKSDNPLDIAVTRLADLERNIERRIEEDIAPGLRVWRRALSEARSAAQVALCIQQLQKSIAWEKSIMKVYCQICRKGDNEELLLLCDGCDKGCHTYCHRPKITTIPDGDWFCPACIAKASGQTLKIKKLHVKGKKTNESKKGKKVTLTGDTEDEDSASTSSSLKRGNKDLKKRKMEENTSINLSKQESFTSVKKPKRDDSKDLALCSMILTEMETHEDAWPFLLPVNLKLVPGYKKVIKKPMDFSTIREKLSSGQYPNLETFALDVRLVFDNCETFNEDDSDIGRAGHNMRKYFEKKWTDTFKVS

Row | Structure (SMILES) | Potency
1 | CCn1c(COc2ccc(C)cc2)nc2ccccc21 | inactive
2 | COc1cc(CN2CCN(c3ccc(C)cc3)CC2)cc([N+](=O)[O-])c1O | inconclusive: 89.1 µM [inhibitor, single point]
3 | Cc1cc(C)c2nc(N3CCN(C(=O)c4ccco4)CC3)sc2c1 | inconclusive: 89.1 µM [inhibitor, single point]
4 | CCOC(=O)N1CCN(C(=O)C2CCN(S(=O)(=O)c3cc(Cl)ccc3Cl)CC2)CC1 | inconclusive: 89.1 µM [inhibitor, single point]
5 | CC(=O)c1ccc(NC(=O)c2nc(-c3ccccc3)n(-c3ccc(Cl)cc3)n2)cc1 | inconclusive: 89.1 µM [inhibitor, single point]
6 | Cc1cc(C)c(S(=O)(=O)NCC(=O)NCc2cc(=O)n(C)c(=O)n2C)c(C)c1 | inactive
7 | CCCOC(=O)CSC1=C(C#N)C(c2ccc3c(c2)OCO3)CC(=O)N1 (configuration not stated) | inactive
8 | CC(=O)N1CCc2cc(Br)cc(S(=O)(=O)N3CCC(C)CC3)c21 | inactive
9 | CC(=O)Oc1ccc(N2C(=O)C3C4C=CC(CC4)C3C2=O)cc1[N+](=O)[O-] (configuration not stated) | inconclusive: 89.1 µM [inhibitor, single point]
10 | Cc1ccc(-c2nc3nc(C)cc(C)n3c2Nc2ccc3c(c2)OCCO3)cc1 | inconclusive: 39.8 µM [inhibitor, full curve, poor fit]
11 | Cc1cccc(Nc2cc(C)c3c(O)cccc3n2)c1C | active: 39.8 µM
12 | CCCc1[nH]nc2c1C(c1ccc(OC)c(Cn3nc(C)c(Br)c3C)c1)C(C#N)=C(N)O2 (configuration not stated) | inconclusive: 89.1 µM [inhibitor, single point]
13 | COc1cc(Cl)c(C)cc1NC(C)C(=O)Nc1cc(C(F)(F)F)ccc1N1CCOCC1 (configuration not stated) | inconclusive: 70.8 µM [inhibitor, single point]
14 | Cc1cc2c(c(=O)o1)C1(C(=O)N(CC(=O)O)c3ccccc31)C(C#N)=C(N)O2 (configuration not stated) | inconclusive: 89.1 µM [inhibitor, single point]
15 | COc1ccc(C2C(C(=O)c3ccco3)=C(O)C(=O)N2c2nnc(C)s2)cc1 (configuration not stated) | active: 50.1 µM
16 | COc1cc(C(=O)NCc2ccco2)cc(OC)c1OC | inactive
17 | Cc1ccccc1NS(=O)(=O)c1ccc2[nH]cc(C(=O)NC(C)c3ccccc3)c(=O)c2c1 (configuration not stated) | inconclusive: 50.1 µM [inhibitor, partial curve]
18 | CC1=C(C(=O)OCc2ccccc2)C(c2cccc(Cl)c2Cl)NC(=O)N1CCCCCC(=O)O (configuration not stated) | inactive
19 | CC1=CC(C)(C)n2c(O)c(N=NC(N)=S)c3c(C)c(C)cc1c32 | inconclusive: 89.1 µM [inhibitor, single point]
20 | O=C1Nc2ccccc2/C1=C/c1ccccc1F | inconclusive: 70.8 µM [inhibitor, single point]
21 | COCCCNC(=S)N1CCN(c2nc(-c3ccccc3)cs2)CC1 | inconclusive: 79.4 µM [inhibitor, single point]
22 | CCCCN(C)C(=O)C1CCC(CNS(=O)(=O)c2ccc3c(c2)CC(C)N3C(=O)C2CC2)CC1 (configuration not stated) | inactive
23 | CCC(=O)N1CCc2cc(S(=O)(=O)CCC(=O)Nc3ccc(CC)cc3)ccc21 | inactive
24 | CC(Oc1ccc(Br)cc1)C(=O)N(C)CC(=O)Nc1ccc(N2CCOCC2)cc1 (configuration not stated) | inactive

Row | Structure (SMILES) | Potency
25 | Cc1cccc(Nc2nn3c(=O)c4ccccc4nc3s2)c1 | inconclusive: 89.1 µM [inhibitor, single point]
26 | COC(=O)c1cc(-c2ccccc2)nc2nc(SC)[nH]c(=O)c12 | inactive
27 | Cc1cc(N=Nc2ccccc2C(=O)O)c(C)c(C)c1O | active: 28.2 µM
28 | COc1ccc(C(=O)NN2CCOCC2)cc1[N+](=O)[O-] | inactive
29 | O=C(CN1CCN(c2ccc(F)cc2)CC1)Nc1ccccc1C(=O)NCCc1ccccc1 | inconclusive: 39.8 µM [inhibitor, full curve, poor fit]
30 | O=c1c2ccccc2nc(-c2ccccc2Cl)n1O | inconclusive: 89.1 µM [inhibitor, single point]
31 | CCN(CC)c1ccc(Nc2nc(N3CCOCC3)c3ccccc3n2)cc1 | active: 17.8 µM
32 | CN(C)c1cccc(NC(=O)c2cccc3ccccc23)c1 | active: 28.2 µM
33 | COC(=O)c1c(NC(=O)c2nc(SCc3cccc(C)c3)ncc2Cl)sc2c1CCCC2 | inactive
34 | CC1=CC(C)(C)[N+](C)(C)c2ccc(C)cc21 | inconclusive: 89.1 µM [inhibitor, single point]
35 | CCOc1ccc(NC(=O)COC(=O)c2ccc3c(c2)OCO3)cc1 | inactive
36 | O=C(/C=C/c1ccc2ccccc2n1)c1cc(Cl)ccc1O | active: 70.8 µM
37 | CCOc1ccc(Oc2ccc(S(=O)(=O)N3CCOCC3)cc2NC(=O)CCNC(C)=O)cc1 | inactive
38 | NC(=S)N/N=C/c1ccc(-c2ccccc2)o1 | inconclusive: 50.1 µM [inhibitor, partial curve]
39 | O=C(CN1CCCC1)Nc1ccc2c(c1)CCC2 | active: 50.1 µM
40 | CCCOc1ccc(CN(C(=O)c2cc(=O)c3ccc(C)cc3o2)C2CCS(=O)(=O)C2)cc1 (configuration not stated) | inactive
41 | C#CCOCCOCCOCCNc1nc(N2CCN(C(=O)[C@H](CCC(=O)O)n3cc(C(N)CC(C)C)nn3)CC2)nc(N2CCN(C(=O)[C@H](CCC(=O)O)n3cc(C(N)[C@H](C)CC)nn3)CC2)n1 (some centres not stated) | active: 50.1 µM
42 | O=C(CN1/C(=C(/O)c2ccccc2)C(=O)c2ccccc2S1(=O)=O)c1ccccc1 | inconclusive: 12.6 µM [inhibitor, single point]
43 | CCOc1ccccc1CN1CCc2nc(N3CCN(c4ccccc4F)CC3)ncc2C1 | active: 56.2 µM
44 | CCOc1ccc(N(CC(=O)NC2CCCC2)C(=O)Cn2nnc(-c3ccc(C)o3)n2)cc1 | inconclusive: 89.1 µM [inhibitor, single point]
45 | Cc1cc(C(=O)COC(=O)CCc2nc3ccccc3s2)c(C)n1C | active: 50.1 µM
46 | Nc1[nH]ncc1N=Nc1ccc(Cl)cc1 | inconclusive: 89.1 µM [inhibitor, single point]
47 | Cc1ccc(S(=O)(=O)N(C)C)cc1NC(=O)C(C)Sc1ccccc1 (configuration not stated) | inconclusive: 79.4 µM [inhibitor, single point]
